Data on 57 sequences can be found in the supplement of paper PMC11417369.

± gives the standard deviation of the averaged measurements. This is one part of the list.

The assay has as its system PfAP2-G AP2 domain (GST-tagged). As to the kind of experiment: gcPBM binding intensity (ln(normalized median fluorescence intensity)); higher = stronger DNA binding. Summed up: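 Binding of GST-tagged P. falciparum DNA-binding domains, expressed in E. coli and used at about 25 μg on average, was carried out for 1 h in 1× PBS containing 1% milk, 0.2 mg/ml BSA, 0.5% salmon testes DNA and 0.03% Triton X-100. The target was an Agilent 4 × 180k array of primer-extended double-stranded 36-bp intergenic genomic probes plus negative controls, read with Alexa488 anti-GST antibody at 488 nm. Binding intensity is the highest Masliner-normalised natural-log median intensity across replicate spots of either probe orientation.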
Regarding “TTCTATATTATATATGCATGTGTTATTCTTATTTTC [TGCATGCA_site92]”, the “gcPBM binding intensity (ln)” value amounted to 9.87 ± 0.057. Regarding “ATATAATATTAGTGCACACACAAAAATGTACTAAAC [CACACA_site632]”, the “gcPBM binding intensity (ln)” value came out at 11.2 ± 0.79. As to “TATTATTTATTATATGCACACATCGAACTATTATTT [CACACA_site2544]”, the “gcPBM binding intensity (ln)” value came to 10.1 ± 0.18. Consider “TATTCGAAAGAATAGGCATGCAAACATATCTTATTA [TGCATGCA_site147]”, for which the “gcPBM binding intensity (ln)” value turned out to be 9.86 ± 0.11. Regarding “ATATATATTATATGCACACTTATATTTCATTAGATT [CACACA_site2599]”, the “gcPBM binding intensity (ln)” value is 9.855 ± 0.007. As for “TCATCATATTATATATGTACATATATAATAATTTAT [XGTACX_site1625]”, the “gcPBM binding intensity (ln)” value is 11.2 ± 0.71.

With “AAATAATTAAAAAAAAGTACACATGTGACTACATAT [XGTACX_site8767]”, the “gcPBM binding intensity (ln)” value worked out at 11.4 ± 0.71. Regarding “ATTGTATCTGTATATGCACACAATATCTGTACTTCT [CACACA_site5445]”, the “gcPBM binding intensity (ln)” value is 11.3 ± 0.89.

As for “AAATAAAGCACACCGACACACACATATATATATATA [CACACA_site8256]”, the “gcPBM binding intensity (ln)” value amounted to 10.2 ± 0.18. Regarding “TATATATATGTATACACACATACAAATATGTAAAAA [CACACA_site3720]”, the “gcPBM binding intensity (ln)” value was 10 ± 0.12. As for “TTTCAATACTGAAACTGTACTTGTTTTACTTCTATT [XGTACX_site5924]”, the “gcPBM binding intensity (ln)” value amounted to 11.5 ± 1.1. In the case of “CGAAATCATATGTACACACACATATATATATATATA [CACACA_site2151]”, the “gcPBM binding intensity (ln)” value amounted to 11.5 ± 1.1. As for “TTATAATTTTTTTTTGCATGTGGGTTTTTTTTTGTT [TGCATGCA_site968]”, the “gcPBM binding intensity (ln)” value was found to be 9.94 ± 0.15.

As to “TTTTTTCTCTATATATGTACATATAAAAAATATATC [XGTACX_site6382]”, the “gcPBM binding intensity (ln)” value came to 11.3 ± 0.81. For “GTTACACAAACAAACACACACACACGCACGCACAAA [CACACA_site7191]”, the “gcPBM binding intensity (ln)” value amounted to 10.3 ± 0.22. Regarding “ATGAGTATACTAAGAACACACAAGTTACTTGGTGTT [CACACA_site4981]”, the “gcPBM binding intensity (ln)” value was 9.9 ± 0.14. As for “TAAAAAAAAAAAATGTGTACATATTATATATATCTT [XGTACX_site2615]”, the “gcPBM binding intensity (ln)” value worked out at 11.5 ± 0.76.

Regarding “TATAACAAGTAATGTTGTACATTATATTATGTAATA [XGTACX_site2769]”, the “gcPBM binding intensity (ln)” value was found to be 11.1 ± 0.84. The value for “TTTTTTATTATTATGTGTACGAATATGTGCATATAA [XGTACX_site1364]” was 11.1 ± 0.69.

Turning to “CATATTATTTAAACATGTACTCACATATAAATATAA [XGTACX_site6096]”, the “gcPBM binding intensity (ln)” value amounted to 11.4 ± 0.98.

With “ATTTTATAATTTATATCACACACATATATATATAGT [CACACA_site7885]”, the “gcPBM binding intensity (ln)” value was 10.2 ± 0.18. Consider “TGTTTATAAATATAAAAAAATATATATATATATTAT [GTGCAC_negctrl_site247]”, for which the “gcPBM binding intensity (ln)” value amounted to 9.47 ± 0.11. To “GGTTACATTTTATTTTGTACATAAAAATTTTTATTT [XGTACX_site218]” belongs 11.1 ± 0.53. Take GTATTATATATAAAAGTGCATATTTTTTTCCCTTAC: the “gcPBM binding intensity (ln)” value came out at 10.2 ± 0.18. “CAAAATTAATAAGTCACACACACATCTATAATATAT [CACACA_site6519]”: the “gcPBM binding intensity (ln)” value amounted to 10.1. Take “TTCTTTATTTTTTCTACACACATTAGATATTCAAAG [CACACA_site7624]”: the “gcPBM binding intensity (ln)” value turned out to be 10.1 ± 0.13. In the case of “ACCATAACATGAATTACAGGAATTGAAAATGTTCCA [CACACA_negctrl_site649]”, the “gcPBM binding intensity (ln)” value was found to be 9.96 ± 0.3.

Turning to “TATATATATATATTCACACATAAGATGAATAAAGTG [CACACA_site4225]”, the “gcPBM binding intensity (ln)” value stood at 10.3 ± 0.38. Consider “AAAAAAAAAATACATACACACACACCCACCCATATA [CACACA_site9187]”, for which the “gcPBM binding intensity (ln)” value worked out at 10.5 ± 0.22. As to “TGTCCCCCTTTCTATGCACACTTTAAATTATTCAAA [CACACA_site4200]”, the “gcPBM binding intensity (ln)” value was found to be 11.4 ± 0.86. For “TATTAAAAGTAAAAAACACACATGGATAAATACATA [CACACA_site6048]”, the “gcPBM binding intensity (ln)” value was determined as 10.03 ± 0.092. For “ATATTTAGAATGTTCCTACACACCAAATTTAAGTGG [CACACA_site2346]”, the “gcPBM binding intensity (ln)” value is 10.2 ± 0.18. On to “TTTATTTTACAAAAAAGTACAAGAAGAAATATCAAT [XGTACX_site7812]”, for which the “gcPBM binding intensity (ln)” value stood at 11.3 ± 0.89. With “TCAATATACCAAAAATGTACAAAAAATAAACAATAT [XGTACX_site8251]”, the “gcPBM binding intensity (ln)” value turned out to be 10.8 ± 0.49. The value for “GAACATTTCACATGGTGTACTCTCTTTTTCAAATAA [XGTACX_site1632]” was 11.6 ± 1.1. To “AATGATATATTATAAACACACAAAGATGGATATATA [CACACA_site7349]” belongs 9.87 ± 0.13; to “TTATATATAAATGAAAGTACAAAACAGGAAAGAATA [XGTACX_site1076]”, 11 ± 0.49; to “ATATATAATATATGTGGTACGCAAAATATTATATTA [XGTACX_site4969]”, 11.4 ± 0.95. Consider “AATACACGCAAACACACACACACACCCACATATATA [CACACA_site638]”, for which the “gcPBM binding intensity (ln)” value came out at 10.3 ± 0.2.

Take “AAAACACAATTTATTACACACATATATTATATATTA [CACACA_site1420]”: the “gcPBM binding intensity (ln)” value amounted to 9.86 ± 0.057. The value for “ATGAATGAATAAAGAAGTACGGAAATATTAACAAAA [XGTACX_site4695]” was 11.2 ± 0.67; that for “TTCTTCTGTTTTATTACACACCATTTTGTGTCTACA [CACACA_site8643]” was 10.2 ± 0.17; that for “CTCTATATATTATTATGTACTAAATGTATGTATGTA [XGTACX_site7151]” was 10.9 ± 0.48.

Take “ATAACATACATAACAACACACAATATTTATCTGTAT [CACACA_site4279]”: the “gcPBM binding intensity (ln)” value worked out at 9.96 ± 0.24.

“TTCATTCAAATCCAAGCATGCTTTATTAAAAAATTA [TGCATGCA_site567]”: the “gcPBM binding intensity (ln)” value came to 9.84 ± 0.26. For the sequence ATATATAATTCCCAAGTGCATTTATTTTAATTATTA, the “gcPBM binding intensity (ln)” value was determined as 9.945 ± 0.007. Consider “TGTGAAATAAAATTTGTACACACATATATATATATA [CACACA_site8093]”, for which the “gcPBM binding intensity (ln)” value came out at 11.1 ± 0.73. Turning to “TACGCCTATAACGGCTGTACACCTTACTTTTTTTAA [XGTACX_site6818]”, the “gcPBM binding intensity (ln)” value worked out at 11.5 ± 0.79. Regarding “TATGATTTTTATATATGTACGTATGGTGTTTTACAA [XGTACX_site6100]”, the “gcPBM binding intensity (ln)” value came to 11.3 ± 0.53. For “AATAAATTTCAAAATTGTACTCATTTCCTTTCCCAA [XGTACX_site5887]”, the “gcPBM binding intensity (ln)” value worked out at 11.4 ± 0.93. As for “ATATATATATATATATGTACACATATATTTCTTTTC [XGTACX_site3443]”, the “gcPBM binding intensity (ln)” value came out at 11.4 ± 0.91. The value for “ATAAAATTTTATATGGGTACATAATATAATATATAT [XGTACX_site8160]” was 11.4 ± 0.67; that for “AAAAAAAAAAAAAGTGCACACGATTTAAGGCCTATA [CACACA_site2823]” was 10.7 ± 0.6; that for ATTCCTGGACCGTTCATGCACTTGCAGAACGTCCAT was 10.7 ± 0.34. Consider “TTTATGAAATGTTGCACACAAAAAACAACATGTTTT [CACACA_site1440]”, for which the “gcPBM binding intensity (ln)” value turned out to be 10.2 ± 0.21. Turning to “AAATGATATAAATTATAAAATGGATTTTTTCCATTG [CACACA_negctrl_site420]”, the “gcPBM binding intensity (ln)” value is 9.41 ± 0.27. For the sequence “TTTAAAAATTAATTCTGTACACATTTTTATTATATT [XGTACX_site4212]”, the “gcPBM binding intensity (ln)” value turned out to be 11.5 ± 0.81.
